These results are taken from PubChem BioAssay (NCI).

Some test systems named below: COLO 205 colon; HCT-15 colon; HOP-92 NSCLC; NCI-H460 lung; NCI-H522 lung; OVCAR-5 ovarian; RXF 393 renal; SK-MEL-5 melanoma; TK-10 renal; UACC-257 melanoma; UACC-62 melanoma; M14 melanoma; NCI-H226 lung.
What all share (experiment): NCI tumour cell line growth inhibition, 48 h

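Exposure lasted 48 hours, with cells grown in 96-well plates and compounds tested at five concentrations. The concentration for 50% growth inhibition is given as GI50.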 The source holds more than one record for some entries. They are shown here; other results are not. An entry can have further records. Records of one sample usually come from different ranges of test concentrations, which the source does not state; some values may only mark the edge of a range.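 TGI marks complete inhibition of growth.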

For the molecule `CCc1c2c(nc3cccc(N)c13)-c1cc3c(c(=O)n1C2)COC(=O)[C@]3(O)CC`, the TGI with COLO 205 colon was 9.22 µM and > 100 µM; in the assay with HOP-92 NSCLC, 402 nM and 37.8 nM; with NCI-H460 lung, 1.7 µM and 33.3 nM; in the assay on NCI-H522 lung it was 1.54 µM and 49.6 nM; with RXF 393 renal, 1.46 µM and 20.1 nM; in the assay with SK-MEL-5 melanoma, 125 nM and 11.3 nM. Further, the TGI with UACC-257 melanoma was 2.94 µM and > 100 µM; in the assay on UACC-62 melanoma it was 450 nM and 18.7 nM. Also, the GI50 with HCT-15 colon is 716 nM and 25.7 nM; in the assay on OVCAR-5 ovarian, 833 nM and 18.1 nM; in the assay with TK-10 renal, 4.37 µM and 64.6 nM; with UACC-257 melanoma, 295 nM and 21.1 nM.
On to `CCCCCc1c(C)[nH]c(/C=C2\N=C(c3ccc[nH]3)C=C2Oc2ccc(Cl)cc2)c1C`, for which the TGI is 1.26 µM and 58.7 nM with M14 melanoma; 1.69 µM and > 100 µM with NCI-H226 lung. Also, in the assay with NCI-H226 lung, the GI50 is 67.9 nM and 811 nM.
